Measured values taken from the supplement of paper PMC6531468.
Some of the results follow. Read counts after selection give these values, which scatter widely. Each score is taken over the longer molecules that contain the sequence shown.

Legend:
Experiment in all cases: 6-mer SELEX enrichment z-score vs GST control; IMP3 is the RNA-binding protein IGF2BP3; higher = more enriched by binding
IMP3 KH1-4 = conditions: construct: KH1-4 (164-579); SELEX round: R4
Description: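 SELEX-seq with GST-tagged IMP3 KH1-4 (Pro164-Lys579) and an N40 RNA pool, round 4. 6-mer z-score of sequence-tag enrichment normalised to the corresponding GST SELEX round; RNA k-mers written as DNA (T for U).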

IMP3 RRM1-2 = conditions: construct: RRM1-2 (1-163); SELEX round: R2
Sequence of IMP3 RRM1-2 (chain, as listed by the source): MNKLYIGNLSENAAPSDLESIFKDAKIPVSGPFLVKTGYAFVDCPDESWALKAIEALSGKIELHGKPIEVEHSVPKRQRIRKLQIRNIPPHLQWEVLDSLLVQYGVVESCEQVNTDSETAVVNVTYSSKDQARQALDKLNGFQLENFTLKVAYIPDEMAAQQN
Description: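 SELEX-seq with GST-tagged IMP3 RRM1-2 (Met1-Asn163) and an N40 RNA pool, round 2. 6-mer enrichment z-score normalised to GST SELEX. RNA written as DNA (T = U).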

IMP3 full-length = IMP3 full-length (UniProt O00425); conditions: construct: FL IMP3 (1-579); SELEX round: R4
Sequence of UniProt O00425 (O00425 whole entry): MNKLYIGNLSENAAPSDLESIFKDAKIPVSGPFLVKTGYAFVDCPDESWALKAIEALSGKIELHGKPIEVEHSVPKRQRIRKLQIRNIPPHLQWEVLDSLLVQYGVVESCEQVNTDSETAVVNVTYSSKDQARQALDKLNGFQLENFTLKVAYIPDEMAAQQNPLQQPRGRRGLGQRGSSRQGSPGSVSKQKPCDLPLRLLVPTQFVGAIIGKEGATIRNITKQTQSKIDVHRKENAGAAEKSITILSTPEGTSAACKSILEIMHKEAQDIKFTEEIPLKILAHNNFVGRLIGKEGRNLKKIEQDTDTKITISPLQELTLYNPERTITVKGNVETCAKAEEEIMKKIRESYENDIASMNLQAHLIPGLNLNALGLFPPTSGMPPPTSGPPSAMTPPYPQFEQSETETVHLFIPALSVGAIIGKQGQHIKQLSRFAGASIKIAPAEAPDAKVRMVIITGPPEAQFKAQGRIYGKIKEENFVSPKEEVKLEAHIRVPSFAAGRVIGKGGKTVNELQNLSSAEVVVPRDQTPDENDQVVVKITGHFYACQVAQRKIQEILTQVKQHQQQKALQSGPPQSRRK
Description: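 SELEX-seq with GST-tagged full-length IMP3 and an N40 RNA pool, round 4. Each 6-mer is scored as an enrichment z-score of sequence tags containing it, normalised to the matching GST SELEX round. RNA written as DNA (T = U).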

IMP3 KH1-2 = conditions: construct: KH1-2 (164-376); SELEX round: R4
Sequence of IMP3 KH1-2 (chain, as listed by the source): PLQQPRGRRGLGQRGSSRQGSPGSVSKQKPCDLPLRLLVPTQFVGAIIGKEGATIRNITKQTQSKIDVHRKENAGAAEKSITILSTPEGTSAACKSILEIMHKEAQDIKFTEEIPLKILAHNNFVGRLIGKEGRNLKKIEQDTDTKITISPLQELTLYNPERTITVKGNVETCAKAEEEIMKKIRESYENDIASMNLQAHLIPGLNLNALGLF
Description: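 SELEX-seq with GST-tagged IMP3 KH1-2 (Pro164-Phe376) and an N40 RNA pool, round 4 (stringent 300/600 mM KCl washes). 6-mer z-score of sequence-tag enrichment normalised to the corresponding GST SELEX round; RNA k-mers written as DNA (T for U).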

IMP3 KH3-4 = conditions: construct: KH3-4 (377-579); SELEX round: R4
Sequence of IMP3 KH3-4 (chain, as listed by the source): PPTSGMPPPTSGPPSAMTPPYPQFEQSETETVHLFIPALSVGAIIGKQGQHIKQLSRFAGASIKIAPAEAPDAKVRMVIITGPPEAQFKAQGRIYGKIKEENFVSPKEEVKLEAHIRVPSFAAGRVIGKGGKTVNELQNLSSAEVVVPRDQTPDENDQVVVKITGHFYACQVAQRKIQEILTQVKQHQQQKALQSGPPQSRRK
Description: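 SELEX-seq with GST-tagged IMP3 KH3-4 (Pro377-Lys579) and an N40 RNA pool, round 4. 6-mer z-score of sequence-tag enrichment normalised to the corresponding GST SELEX round; RNA k-mers written as DNA (T for U).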

Sequence of IMP3 KH1-4 (chain, as listed by the source): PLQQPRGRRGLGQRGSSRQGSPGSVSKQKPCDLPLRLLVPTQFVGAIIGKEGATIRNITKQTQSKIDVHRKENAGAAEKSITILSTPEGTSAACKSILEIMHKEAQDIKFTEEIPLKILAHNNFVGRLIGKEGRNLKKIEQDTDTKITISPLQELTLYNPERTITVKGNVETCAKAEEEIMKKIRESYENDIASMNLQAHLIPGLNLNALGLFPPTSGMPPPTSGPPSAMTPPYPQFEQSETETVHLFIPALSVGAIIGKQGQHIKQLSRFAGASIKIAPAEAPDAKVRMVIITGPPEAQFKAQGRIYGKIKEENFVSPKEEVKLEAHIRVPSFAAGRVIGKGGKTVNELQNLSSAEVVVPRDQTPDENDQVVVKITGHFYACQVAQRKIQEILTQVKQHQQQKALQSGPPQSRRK

Sequence | 6-mer SELEX enrichment z-score (IMP3 KH1-4) | 6-mer SELEX enrichment z-score (IMP3 RRM1-2) | 6-mer SELEX enrichment z-score (IMP3 full-length) | 6-mer SELEX enrichment z-score (IMP3 KH1-2) | 6-mer SELEX enrichment z-score (IMP3 KH3-4)
TTAGAA | 0.589 | -0.473 | -0.312 | 0.38 | 1.22
ATCATT | 1.82 | 2.43 | 2.28 | 1.67 | 1.78
GCCCTG | -0.805 | -0.472 | -0.505 | -0.669 | -0.99
GGCAGT | 0.642 | 0.347 | 1.02 | 0.567 | 0.717
GGGATC | -0.138 | 0.309 | 0.223 | -0.022 | -0.06
AAGAAA | 0.271 | -2.37 | -1.6 | 0.122 | 1.65
CCAGAG | -1.46 | -0.57 | -0.825 | -1.45 | -1.53
GCGTTC | -0.846 | 0.417 | 0.12 | -0.696 | -0.602
CGATCA | -0.271 | 1.3 | 0.954 | -0.225 | -0.433
TCCATA | 0.951 | 0.422 | 0.545 | 1.06 | 0.536
AGCGAA | -2.2 | -1.01 | -1.21 | -2.1 | -1.96
AGGTTG | 0.075 | 0.246 | 0.015 | 0.074 | 0.201
AGTTTG | -0.169 | 0.227 | -0.197 | -0.181 | -0.003
TGAGTC | 0.255 | 0.019 | 0.283 | 0.128 | 0.191
TCTTGG | -0.429 | 0.649 | 0.104 | -0.288 | -0.203
CATAAG | 0.681 | 0.428 | 0.795 | 0.643 | 0.856
AGGTAT | -0.122 | 0.241 | 0.008 | -0.069 | 0.153
TAGGCT | 0.252 | 0.541 | 0.328 | 0.207 | 0.472
TGCGCG | -0.057 | 0.127 | 0.133 | 0.024 | 0.085
GGTCTC | -0.326 | 0.518 | 0.271 | -0.121 | -0.055
